# According to PMC6919601, “Identification of Plasmodium dipeptidyl aminopeptidase allosteric inhibitors by high throughput screening” (PLoS ONE, 2019):
# Values joined by “and” are separate entries in the source; they are usually repeats but may differ in a detail not shown here. Equal values may be shown once. About 230 (0.21%) of roughly 110,000 compounds showed an effect of 50% or more. The list shows a part of the results.
# Target: DPAP1 (Plasmodium falciparum, UniProt Q8IIJ9)
# Experiment: primary screen, percent inhibition; read by cleavage of a fluorogenic dipeptide substrate; higher = more effect of the substance
# Parameters: species or system P. falciparum D10 trophozoite lysates; single well
# 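Also: 30 min substrate incubation versus DMSO and 10 µM JCP410 controls.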
# Chain of DPAP1 (Q8IIJ9 whole entry, looked up): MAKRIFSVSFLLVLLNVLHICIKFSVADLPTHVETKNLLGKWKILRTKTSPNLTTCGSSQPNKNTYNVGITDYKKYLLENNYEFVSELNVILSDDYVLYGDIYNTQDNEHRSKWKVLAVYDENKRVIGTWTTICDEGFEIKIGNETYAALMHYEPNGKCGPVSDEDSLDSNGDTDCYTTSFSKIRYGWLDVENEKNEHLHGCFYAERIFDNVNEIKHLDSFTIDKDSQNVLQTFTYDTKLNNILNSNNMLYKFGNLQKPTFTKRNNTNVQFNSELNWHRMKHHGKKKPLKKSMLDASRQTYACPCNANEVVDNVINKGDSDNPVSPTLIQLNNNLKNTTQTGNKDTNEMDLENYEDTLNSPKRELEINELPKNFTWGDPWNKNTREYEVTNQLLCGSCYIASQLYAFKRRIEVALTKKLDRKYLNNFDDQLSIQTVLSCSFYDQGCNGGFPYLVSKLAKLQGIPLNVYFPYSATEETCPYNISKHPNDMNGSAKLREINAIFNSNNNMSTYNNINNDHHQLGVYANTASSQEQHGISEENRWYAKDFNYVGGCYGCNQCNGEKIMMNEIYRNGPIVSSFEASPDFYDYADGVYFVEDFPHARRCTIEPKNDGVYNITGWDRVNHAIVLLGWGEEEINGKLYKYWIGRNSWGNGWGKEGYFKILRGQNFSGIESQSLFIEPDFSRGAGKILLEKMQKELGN
row,Structure (SMILES),% Inhibition @ 10 uM
1,COC(=O)C1=CN(CCc2ccc(OC)cc2)C=C(C(=O)OC)C1c1cccs1,3.47%
2,Cn1nc(C(=O)N2CCN(Cc3ccccc3)CC2)c2c1-c1ccccc1S(=O)(=O)C2,-1.38%
3,CCN(CC)C(=O)Cn1cc(S(=O)(=O)Cc2ccccc2)c2ccccc21,3.51%
4,CSc1nc(N)nc(SCC(=O)Nc2ccc(C)cc2)c1C#N,-2.8%
5,O=C1N=C(c2ccc(O)cc2)NC2Oc3ccc4ccccc4c3C=C12 (centres unmarked),1.68%
6,COc1ccc(C(=S)N2CCOCC2)cc1,1.29%
7,COc1ccc(C(=O)Nc2ccc(S(=O)(=O)NC(C)(C)C)cc2)c(OC)c1,-4.21%
8,Cc1cc(C)n2nc(NC(=O)COc3ccc(Cl)cc3C)nc2n1,0.401%
9,Cc1cc(OCC(=O)Nc2ccc(C(C)C)cc2)ccc1Br,-1.25%
10,O=C(NC1CCCC1)C1CCCN(c2cnccn2)C1 (centres unmarked),-4.67%
11,CC(=O)Nc1sc2c(c1C(=O)Nc1cccc3ccccc13)CCCCC2,-1.2%
12,O=C(O)c1cccc(S(=O)(=O)N2CCCC2)c1,-3.04%
13,COCCNC(=O)CS(=O)(=O)Cc1nc(-c2ccc(OC)cc2)oc1C,-7.53%
14,Sc1ccc(N2CCCCCC2)nn1,23.5%
15,Cc1oc2cc3oc(=O)c(CCC(=O)NCCc4ccccc4)c(C)c3cc2c1C,-0.808%
16,CC1(C)CC(=O)C(Sc2ccccc2C(=O)O)=C(O)C1,0.83%
17,CN(c1ccccc1C(=O)NC1CCCCC1)S(=O)(=O)c1ccccc1,-2.74%
18,COc1ccc(-c2csc(Nc3ccc(C)c(Cl)c3)n2)cc1F,1.41%
19,COc1ccccc1N1CCN(C(=O)c2ccc(F)cc2)CC1,3.01%
20,Oc1nc(-c2ccccc2)cc(-c2ccc(Br)cc2)n1,4.63% and 2.46%
21,CN1NC2(CCCC2)NC1=S,6.82%
22,COc1ccc(CNC(=O)c2ccc(CS(=O)Cc3ccc(C)cc3)o2)cc1 (centres unmarked),-3.91%
23,N#C/C(=C\c1ccc2cccnc2c1)c1nc2ccccc2[nH]1,-0.703%
24,Cc1ccc(NC(=O)/C(=C/c2ccco2)NC(=O)c2ccc(C)c(C)c2)cc1,-1.07%
25,CSc1ccc(C2C(C#N)=C(N)OC3=C2C(=O)CC(c2ccccc2)C3)cc1 (centres unmarked),-3.72%
26,Clc1ccc(-n2ncnc2-c2cccnc2)cc1,-2.48%

row,Structure (SMILES),% Inhibition @ 10 uM
1,Cc1nc(SCC(=O)Nc2ccccc2C(N)=O)c(C#N)c(C)c1C,0.121%
2,Cn1c(S)nnc1Cn1ncc2ccccc2c1=O,3.93%
3,CCCOC(=O)CSc1nnc(O)nc1O,-5.28%
4,Cc1cc(Cl)ccc1NC(=O)C(C)N(c1ccccc1)S(C)(=O)=O (centres unmarked),-0.992%
5,Cc1cc(C)c(S(=O)(=O)Nc2cccc3cccnc23)c(C)c1,-8.77%
6,Cc1ccccc1C(=O)Nc1c2c(nn1-c1cccc(Cl)c1)CS(=O)(=O)C2,-0.195%
7,CCOC(=O)C1=C(CN2CCN(c3ccccn3)CC2)NC(=O)NC1c1ccc(Cl)cc1 (centres unmarked),-1.03%
8,CCc1ccc(-c2[nH]nc3nc(-c4ccc(C)cc4)cc(C(=O)NCCCOC)c23)cc1,0.747%
9,Cc1ccc(/C=C2/NC(=O)N(Cc3ccccc3)C2=O)o1,-4.15%
10,CCCCCCn1c(SC(C)CC)nc2c1c(=O)[nH]c(=O)n2C (centres unmarked),-2.68%
11,O=C(O)c1[nH]c2ccc(Cl)cc2c1CC(=O)N1CCC2(CC1)OCCO2,-4.74%
12,Cc1cc(Cl)nc(Cl)c1C(=O)NCCc1ccccc1,-1.82%
13,C=CCn1c(SCC(=O)Nc2ccc(OC)cc2)nc2sc(CC)cc2c1=O,-5.34%
14,Cc1ccccc1C1CC(=O)NC2=C1C(=O)CCC2 (centres unmarked),-11.6%
15,CCCCc1c(O)c2ccccc2n(C)c1=O,12.6%
16,COc1ccc(CN2C(=O)c3cccnc3C2=O)cc1S(=O)(=O)N1CCOCC1,3.43%
17,COC(=O)C1=CN(C23CC4CC(CC(C4)C2)C3)C=C(C(=O)OC)C1c1ccccc1OC(C)C,-7.23%
18,O=C(NCCCN1CCC(Cc2ccccc2)CC1)c1ccc(CS(=O)c2ccccc2)o1 (centres unmarked),-6.89%
19,O=C(COc1ccc(Br)cc1)Nc1nc2ccccc2s1,0.812%
20,O=C1c2ccccc2C(=O)C1c1ccccn1,1.8%
21,Nc1ccc(Cl)cc1-n1nc(-c2ccccc2)c2ccccc2c1=O,-3.6%
22,Oc1ccc(SCCCCN2CCCCCC2)cc1,2.33%
23,Cc1nc2c(=O)sc3ccccc3c2n1Cc1ccccc1,-1.32%
24,COc1ccc(CCNC(=O)C2CC2)cc1,4%
25,CN(CC(=O)NCCC1=CCCCC1)S(=O)(=O)c1ccc2[nH]c3c(c2c1)CCCC3,6.78%
26,c1ccc(C2CNCc3c2ccc2ccccc32)cc1 (centres unmarked),2.68%

row,Structure (SMILES),% Inhibition @ 10 uM
1,CC1=C(C#N)C(c2ccc(F)cc2)C2=C(O)c3ccccc3C2=N1 (centres unmarked),-6.38%
2,NS(=O)(=O)c1ccc(CCNC(=O)C2CCCN(S(=O)(=O)c3cccc4nonc34)C2)cc1 (centres unmarked),-5.2%
3,Cc1ccc(-c2cc(C(=O)N3CCc4ccccc4C3)[nH]n2)cc1C,-0.899%
4,Cc1ccc(-n2ncc3c(N(CCO)Cc4ccccc4)ncnc32)cc1C,-1.27%
5,Cc1ccc(C2=NNC(=O)C(P(=O)(c3ccccc3)c3ccccc3)C2)cc1 (centres unmarked),-3.33%
6,Cn1c(=O)c2c(nc(Sc3nc4ccccc4n3CC(=O)N3CCOCC3)n2C)n(C)c1=O,18.3%
7,COc1cc(OC)cc(C(=O)Nc2ccc(OCC(=O)O)cc2)c1,-1.61%
8,CCOC(=O)c1c(C)nc2n(C)c3ccccc3n12,0.486%
9,COC(=O)c1nnn(-c2cc(C)ccc2OC)c1C(=O)OC,0.163%
10,O=C(O)C1CCCCC1C(=O)NCCCN1CCOCC1 (centres unmarked),5.83%
11,N#CC1=C(N)OC2=C(C(=O)CC(c3ccccc3)C2)C1c1ccc(O)cc1 (centres unmarked),1.48%
12,Sc1nnc(-c2ccc(Cl)cc2Cl)n1-c1ccc(Cl)cc1,8.76%
13,CCC(C)NC(=O)c1c(C)nn(-c2ccc(F)cc2)c1-n1cccc1 (centres unmarked),3.22%
14,COc1ccc(OC)c(C2C(C#N)=C(N)Oc3cc(O)ccc32)c1 (centres unmarked),4.7%
15,CCOc1ccc(-c2[nH]nc3c2C(c2ccc(F)cc2F)C(C#N)=C(N)O3)cc1 (centres unmarked),-4.65%
16,COCC(C)NC(=O)C1CC(c2ccc(OC)cc2)=NO1 (centres unmarked),1.62%
17,N=C1SC2CS(=O)(=O)CC2N1Cc1ccccc1Cl (centres unmarked),-4.75%
18,CCCSc1nc2c(c(=O)[nH]c(=O)n2C)n1Cc1ccccc1Cl,-0.864%
19,Cc1ccc(CNC(=O)CNC(=S)N(Cc2cccs2)C2CCCC2)cc1,-2.14%
20,COc1ccc(C(=O)NCc2nnc(SCC(=O)NCCc3ccc(OC)c(OC)c3)o2)cc1,-1.58%
21,Cn1c(=O)n(Cc2ccc(C#N)cc2)c(=O)c2c1ncn2Cc1ccccc1,-0.891%
22,N#CC1=C(N)OC2=C(C(=O)CCC2)C12C(=O)Nc1ccc(Br)cc12 (centres unmarked),7.47%
23,C/C(=N\[C@@H](CC1CCCCC1)C(=O)NCC#N)NS(=O)(=O)c1ccccc1,-6.56%
24,O=C(Nc1ccc(F)cc1)c1ccccc1Cl,4.12%
25,CCN(CC)CC#CC(C)OC(C)=O (centres unmarked),-3.32%
26,COc1ccc(CN2CC=C(c3ccc(F)cc3)CC2)c(O)c1,-1.21%

row,Structure (SMILES),% Inhibition @ 10 uM
1,O=C1C2C3c4ccccc4C(c4ccccc43)C2C(=O)N1c1ccc2c(c1)OCO2 (centres unmarked),-8.49%
2,O=S(=O)(NCc1ccccc1)c1cccc(S(=O)(=O)c2ccc(Cl)cc2)c1,-5.36%
3,COc1cccc(/C=C2/NC(=O)NC2=O)c1OC(C)C,0.161%
4,CC1=C(C(=O)Nc2cccc(C)n2)C(c2ccc3c(c2)OCO3)C2=C(O)CCCC2=N1 (centres unmarked),-2.07%
5,Cc1cc(O)n2nc(-c3cccc(Br)c3)cc2n1,-2.87%
6,COC(=O)c1ccc(CN2CCc3c([nH]c4ccccc34)C2)cc1,-5.31%
7,CCOc1ccccc1C1C(C#N)=C(N)Oc2c1c(O)nc1ccccc21 (centres unmarked),-0.446%
8,CCOC(=O)c1cc(NC(=O)N(CC)CC)c(C)nc1C,-2.4%
9,CCN(CC)C(=O)Cn1ncc2c3ccccc3n(Cc3cccc(Cl)c3)c2c1=O,3.4%
10,COc1ccc(C(=O)Nc2nc(-c3cccc(Br)c3)cs2)c(OC)c1,5.99%
11,O=C(CCC1CCCC1)N1CCN(c2ccc(F)cc2)CC1,3.76%
12,O=C(COc1ccccc1)NCc1nc2ccccc2n1Cc1ccccc1Cl,-2.28%
13,CC(C)c1ccc(S(=O)(=O)c2cc3cc(Br)ccc3oc2=O)cc1,0.44%
14,CN1CCCN(Cc2cccs2)CC1,1.63%
15,COc1ccc(CNCc2ccco2)cc1,0.177%
16,Cc1ccc(S(=O)(=O)c2ccc(Cl)c(Cl)c2)cc1S(=O)(=O)N1CCOCC1,-0.999%
17,Cc1ccc2c(CNC3CCCC(C)C3C)c(C(=O)O)[nH]c2c1 (centres unmarked),-7.56%
18,O=C(O)c1nn(-c2ccccc2)c(=O)c2ccccc12,3.48%
19,CC(C)c1c(O)c2c(n(-c3ccccc3)c1=O)CC(C)(C)CC2=O,-1.98%
20,CC(C)C1N(C(=O)CSc2nc3cc(Cl)ccc3s2)CCN1S(=O)(=O)c1ccccc1 (centres unmarked),2.72%
21,CCCCNC(=O)CN(c1cccc(C(F)(F)F)c1)S(C)(=O)=O,-5.1%
22,CCOc1cc(/C=C2/C(=O)ON=C2C)ccc1OCc1ccccc1,3.06%
23,CCOc1cc(C2c3c(-c4ccccc4O)n[nH]c3C(=O)N2CCCOC(C)C)ccc1O (centres unmarked),-3.12%
